Source: article PMC4336329 (PLoS ONE, 2015)
Hit rate of the full screen: of about 310,000 compounds, about 14,000 (4.5%) showed an effect of 50% or more. Effects have a minus sign here. The list shows a part of the results.

Molecular target: human ether-à-go-go-related gene (hERG) potassium channel (human, UniProt Q12809)
Experiment: primary screen, population patch clamp on CHO cells stably expressing hERG
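Further: peak tail current of the secondary pulse compared with the same well before compound.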

Chain of human ether-à-go-go-related gene (hERG) potassium channel (Q12809 whole entry, looked up): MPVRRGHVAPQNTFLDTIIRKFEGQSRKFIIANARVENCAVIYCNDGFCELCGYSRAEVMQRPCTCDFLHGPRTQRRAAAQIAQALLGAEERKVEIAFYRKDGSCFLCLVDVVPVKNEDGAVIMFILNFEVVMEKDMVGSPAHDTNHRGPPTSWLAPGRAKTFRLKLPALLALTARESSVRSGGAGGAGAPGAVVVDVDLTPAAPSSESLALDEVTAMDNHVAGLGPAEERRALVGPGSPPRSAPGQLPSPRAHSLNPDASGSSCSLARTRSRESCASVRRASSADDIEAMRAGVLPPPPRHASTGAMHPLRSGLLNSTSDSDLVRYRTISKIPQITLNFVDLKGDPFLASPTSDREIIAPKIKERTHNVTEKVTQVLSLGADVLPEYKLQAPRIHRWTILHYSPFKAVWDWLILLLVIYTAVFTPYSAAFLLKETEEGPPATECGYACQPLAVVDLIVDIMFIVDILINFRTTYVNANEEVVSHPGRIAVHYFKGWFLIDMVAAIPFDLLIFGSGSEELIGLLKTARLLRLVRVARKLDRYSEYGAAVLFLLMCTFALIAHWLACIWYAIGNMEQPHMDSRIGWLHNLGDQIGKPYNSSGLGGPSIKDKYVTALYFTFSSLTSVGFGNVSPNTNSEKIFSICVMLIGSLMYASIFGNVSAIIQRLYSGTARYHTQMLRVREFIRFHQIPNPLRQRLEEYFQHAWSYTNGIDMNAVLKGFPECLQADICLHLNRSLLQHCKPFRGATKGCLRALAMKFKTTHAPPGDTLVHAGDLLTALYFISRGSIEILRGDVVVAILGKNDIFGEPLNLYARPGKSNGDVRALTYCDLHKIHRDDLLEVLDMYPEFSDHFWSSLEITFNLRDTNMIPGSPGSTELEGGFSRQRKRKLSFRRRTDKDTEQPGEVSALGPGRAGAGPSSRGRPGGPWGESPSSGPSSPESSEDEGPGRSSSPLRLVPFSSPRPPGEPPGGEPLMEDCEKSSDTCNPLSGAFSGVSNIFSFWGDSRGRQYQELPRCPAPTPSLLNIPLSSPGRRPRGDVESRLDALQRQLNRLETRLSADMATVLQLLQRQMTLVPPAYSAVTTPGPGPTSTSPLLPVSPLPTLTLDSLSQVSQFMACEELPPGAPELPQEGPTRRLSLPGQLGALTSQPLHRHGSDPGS

| SMILES | hERG current change (%, negative = inhibition) at 10uM [%] |
| --- | --- |
| O=C(CSc1nnc(COc2ccccc2)o1)Nc1nccs1 | 7.97 |
| CS(=O)(=O)N1CCC(C(=O)Nc2ccc(OCc3ccccc3)cc2)CC1 | -0.722 |
| CC(=O)N1c2ccc(S(=O)(=O)N3CCC(C(=O)NCc4ccc(Cl)cc4)CC3)cc2CC1C (centres unmarked) | -0.255 |
| O=S(=O)(NCCc1ccccc1)c1ccc(Br)s1 | 4.74 |
| CC(=O)c1ccc(N2CCN(CC(=O)Nc3cc(C)on3)CC2)cc1 | -7.9 |
| COc1ccc([N+](=O)[O-])cc1NS(=O)(=O)c1cc(C(=O)NCc2cccnc2)ccc1Cl | -18.2 |
| CCCn1c2c(c(O)c(C(=O)Nc3ccc(OCC)cc3)c1=O)CCCC2 | 0.963 |
| COCCNC(=O)c1cc2c(=O)n(C)c3ccccc3c2n1C | 6.53 |
| COc1ccc2c(c1)cc(C(=O)N[C@H](C(=O)N1CCC[C@H]1C(=O)O)C(C)C)n2C | 13.5 |
| O=C(N/N=C/C=C/c1ccc2c(c1)OCO2)C(O)c1ccccc1 (centres unmarked) | -2.54 |
| COc1ccccc1CN(Cc1nc2ccccc2c(=O)[nH]1)S(=O)(=O)c1ccc2ccccc2c1 | 16.6 |
| Cc1nnc(SCC(=O)Nc2c(C)n(C)n(-c3ccccc3)c2=O)n1Cc1ccccc1 | 3.96 |
| Cc1nc2ccccc2n1CSc1ccccc1 | -23.7 |
| CS(=O)(=O)c1ncc(CO)n1Cc1ccccc1 | 5.69 |
| COc1ccc(-n2c(C)cc(-c3cn4cccc(C)c4n3)c2C)cc1 | -11.9 |
| Cc1cc(C)cc(NC(=O)N2CCCC2C(=O)NCc2ccco2)c1 (centres unmarked) | -13.7 |
| Nn1c(C2CCCCC2)nc2ccccc2c1=O | -14.1 |
| CCCc1c(C(=O)N/N=C/c2cccc(OCc3ccc(F)cc3)c2)nnn1-c1nonc1N | 5.94 |
| Fc1ccccc1CNC(=S)NC1CCCCC1 | 15.6 |
| Cc1ccccc1-n1c(SCC(=O)Nc2ccccc2)nc2nc3c(cc2c1=O)CCCC3 | 9.25 |
| CCSc1nc(-c2cccnc2)ccc1C#N | -35.3 |
| O=C(/C=C\c1ccccc1)Nc1nccs1 | 17.6 |
| CCOc1cc2[nH]c(=S)n(CCC(=O)NCc3ccc(OC)cc3)c(=O)c2cc1OCC | 10.5 |

| SMILES | hERG current change (%, negative = inhibition) at 10uM [%] |
| --- | --- |
| Cc1ccccc1-n1nc(C)c2cc(C(=O)N3CCOCC3)sc21 | -1.28 |
| Cc1c(C(=O)Nc2ccc3c(c2)OCO3)oc2ccccc12 | 9.56 |
| CN(C(=O)CC1C(=O)NCCN1Cc1ccc(F)c(F)c1)C1CCCCC1 (centres unmarked) | 5.45 |
| CCOc1ccc(N2C(=O)C3ON(c4ccccc4)C(c4cccs4)C3C2=O)cc1 (centres unmarked) | 7.35 |
| Cc1cc(-c2nnc(SCC(=O)Nc3ccc(Cl)cn3)n2N)n[nH]1 | -10.4 |
| Cc1ccc(C)c(NC(=O)c2cc(=O)c3ccccc3o2)c1 | -16.4 |
| O=C(O)Cc1sc(-c2ccccc2)nc1-c1ccccc1 | 13.7 |
| N#CCC(=O)Nc1ccc(C(=O)OCC(=O)NC(=O)Cc2ccccc2)cc1 | 13 |
| CN(C)S(=O)(=O)c1ccc(C(=O)NCCOc2ccc(F)cc2)cc1 | -27.3 |
| CC(=O)Nc1ccc(C(=O)OCC(=O)N(Cc2ccccc2)C(C)(C)C)cc1 | -8.51 |
| Cc1cc(C(F)(F)F)nn1Cc1n[nH]c(=S)n1-c1ccc(F)cc1 | 14.6 |
| CC(C)N1C(=O)CCC1C(=O)NCCc1ccccc1 (centres unmarked) | -6.11 |
| O=C(CCCCO)CCCCCCCC[C@H]1N[C@H](CO)[C@H](O)[C@@H]1O[C@@H]1O[C@H](CO)[C@@H](O)[C@H](O)[C@H]1O | 6.58 |
| CN(C(=O)COC(=O)c1cc([N+](=O)[O-])ccc1Cl)c1ccccc1 | -19.7 |
| Cc1ccc(/C=C/C(=O)Nc2ccncc2)o1 | 12.8 |
| COc1ccc(C2CC(c3ccccc3)=NN2c2ccc(N)cc2)cc1 (centres unmarked) | 6.71 |
| O=C1c2ccccc2C(=O)c2c1ccc1c(=O)n(-c3ccccc3)[nH]c21 | 7.63 |
| O=C(Nc1ccc(C(=O)N2CCCC2)cc1)c1ccccc1[N+](=O)[O-] | 17.7 |
| N#Cc1sc(NCc2ccccn2)nc1Cl | 7.54 |
| CCc1ccc(S(=O)(=O)Nc2cccc(-c3ccc4nnc(C)n4n3)c2)s1 | -11.6 |
| O=C(NCCO)C1COc2ccccc2O1 (centres unmarked) | 15.5 |
| Cc1ccc2c(c1)N(Cc1ccc3c(c1)OCO3)C(=O)C(C)O2 (centres unmarked) | -13.5 |
| COC(=O)C(C)Sc1ncnc2c1nnn2-c1ccc(F)cc1 (centres unmarked) | -7.56 |

| SMILES | hERG current change (%, negative = inhibition) at 10uM [%] |
| --- | --- |
| C/C(=N\N=c1/sc2ccccc2n1C)c1ccc(N2CCOCC2)cc1 | 18.9 |
| Cc1ccc(S(=O)(=O)NCC(c2cccnc2)N(C)C)cc1 (centres unmarked) | 7.44 |
| COc1ccccc1OCC#CCSc1ncccn1 | 15.2 |
| COc1cccc(Cn2nnc(C(=O)Nc3cc(C)ccc3OC)c2N)c1 | 8.11 |
| Cc1ccccc1CSCCC(=O)NCCc1ccccc1 | 0.596 |
| Cc1ccc(S(=O)(=O)Nc2cccc3ncccc23)s1 | -18.7 |
| CCOc1ccc(NC(=O)c2cccnc2C(=O)O)cc1 | 8.94 |
| CCOc1ccc(N2C(=O)C3CCCN3C2=S)cc1 (centres unmarked) | 8.27 |
| O=C(CN1C(=O)NC2(CCCCC2)C1=O)Nc1ccccc1N1CCCC1 | 24.2 |
| COc1ccc2oc(C(=O)Nc3ccc(C)cn3)c(C)c2c1 | 0.82 |
| Cc1c(NC(=O)c2ccc([N+](=O)[O-])o2)cccc1-c1nc2ncccc2o1 | -11.8 |
| CC(C)(C)C(=O)/C=c1\[nH]c(=O)/c(=C\c2ccccc2F)s1 | 12.2 |
| COc1cccc(/C=C/C(=O)OCC(=O)NCc2ccco2)c1 | -12 |
| CC(C)(C)C1c2[nH]c3ccccc3c2CCN1Cc1cccc(OCCO)c1 (centres unmarked) | 1.16 |
| O=C(Nc1nnc(-c2ccc(Br)cc2)o1)c1ccco1 | 3.75 |
| COc1ccc(NC(=O)CCC2CCCCC2)cc1S(=O)(=O)N1CCCCC1 | -14.1 |
| O=C(NCCc1ccccc1F)C1CCC(=O)N(CCCN2CCCC2=O)C1 (centres unmarked) | -7.84 |
| COc1cc(CN2CCNC(=O)C2CC(=O)N2CCCO2)cc(OC)c1 (centres unmarked) | 28.5 |
| COc1ccc(N2CC(C(=O)Nc3c4c(nn3-c3ccc(OC)cc3)CS(=O)(=O)C4)CC2=O)cc1 (centres unmarked) | 21.4 |
| O=C(N/N=C/c1c[nH]c2ccc(Br)cc12)c1ccn(Cc2ccc(Cl)cc2)n1 | 17.9 |
| NS(=O)(=O)c1ccc2nc(NC(=O)CS(=O)(=O)c3ccccc3)sc2c1 | 26.8 |
| O=C(O)c1ccccc1C(=O)NNc1ccc(F)cc1 | 20.4 |
| CCOc1ccc(NC(=S)N(CCc2c(C)[nH]c3ccc(C)cc23)Cc2ccncc2)cc1 | -3.99 |

| SMILES | hERG current change (%, negative = inhibition) at 10uM [%] |
| --- | --- |
| Cc1c(C(=O)Nc2ccc(Oc3ccccc3)cc2)sc2nc3n(c(=O)c12)CCC3 | 0.214 |
| Cc1nn(C)c(C)c1C(=O)NN | 12.9 |
| CCCCn1c(O)c(C=NCCCn2ccnc2)c(=O)[nH]c1=O | 9.41 |
| O=C(c1ccc([N+](=O)[O-])cc1)N1CCN(c2ncccn2)CC1 | -77.8 |
| CCOc1ccccc1NC(=O)CSc1nnc(CNC(=O)c2ccco2)o1 | -7.77 |
| CCOC(=O)c1[nH]c2ccc(OC)cc2c1NC(=S)N1CCN(c2ccccc2OC)CC1 | 3.9 |
| COC(=O)c1c(-c2ccccc2)c(-c2ccccc2)nn(C)c1=O | 6.22 |
| CCC1(C)NC(=O)N(/N=C/c2cc(OC)c(O)c(OC)c2)C1=O (centres unmarked) | 20.8 |
| COc1ccc(Cl)cc1-c1n[nH]c(=S)n1Cc1ccccc1 | 15 |
| Cc1cc(C(=O)CSc2nc(N)cc(N)n2)c(C)n1C1CC1 | 22.6 |
| COc1ccc(OS(=O)(=O)Cc2ccccc2)cc1 | 5.11 |
| CCN(C(=O)c1ccc2c(c1)OCO2)C1CCS(=O)(=O)C1 (centres unmarked) | 9.27 |
| COC(=O)c1ccc(Cn2cc(Cl)cn2)cc1 | 5.02 |
| CCC1(C)OC(=O)N2CCc3c(C)[nH]c4c(C)ccc(c34)C21C (centres unmarked) | -1.17 |
| Cc1cc(C(=O)N2CCN(C(=O)c3ccco3)CC2)ccc1[N+](=O)[O-] | -64.7 |
| CCCCN(C(=O)c1ccc(-c2ccc([N+](=O)[O-])cc2)o1)c1c(N)n(CCCC)c(=O)[nH]c1=O | -9.84 |
| CCCOc1ccc(C(=O)N2CCN(c3ccc(NC(=O)CC)cc3Cl)CC2)cc1 | -77 |
| COc1cc2c(cc1OC)-c1cc(NCc3ccccn3)nc(=O)n1CC2 | -0.823 |
| Cc1nnc(NC(=O)NC(C)N2C(=O)C3C4C=CC(C4)C3C2=O)s1 (centres unmarked) | 15.5 |
| Cc1ccc(NNC(=O)CCc2ccccc2)c(C)c1 | 12.9 |
